From article PMC9911399, “Two distinct binding modes provide the RNA-binding protein RbFox with extraordinary sequence specificity” come the findings set out here.

Sequences and labels used below:
T1: RBFOX1 RRM (Homo sapiens, UniProt Q9NWB1 109-208)
T1 sequence: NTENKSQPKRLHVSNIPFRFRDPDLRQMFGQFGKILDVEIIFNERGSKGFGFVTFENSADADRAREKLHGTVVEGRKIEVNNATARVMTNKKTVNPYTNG

B1: GAUCUCA (DNA:RNA)
RNA: GGGAGACCGGAAUUCAGAUUGUCCGAUCUCAUUAAAUCCCGUCGUAGCCACCA
DNA 1: CAATCTGAATTCCGGTCTCCC
DNA 2: TGGTGGCTACGACGGGATT
B2: CUAAUUU (DNA:RNA)
RNA: B1 RNA with G25C, A26U, U27A, C28A, C30U, A31U
DNA 1: CAATCTGAATTCCGGTCTCCC
DNA 2: TGGTGGCTACGACGGGATT
B3: CGUAAGC (DNA:RNA)
RNA: B1 RNA with G25C, A26G, C28A, U29A, C30G, A31C
DNA 1: CAATCTGAATTCCGGTCTCCC
DNA 2: TGGTGGCTACGACGGGATT
B4: UAACAAG (DNA:RNA)
RNA: B1 RNA with G25U, U27A, U29A, C30A, A31G
DNA 1: CAATCTGAATTCCGGTCTCCC
DNA 2: TGGTGGCTACGACGGGATT
B5: ACUUGAU (DNA:RNA)
RNA: B1 RNA with G25A, A26C, C28U, U29G, C30A, A31U
DNA 1: CAATCTGAATTCCGGTCTCCC
DNA 2: TGGTGGCTACGACGGGATT
B6: GUUGAGA (DNA:RNA)
RNA: B1 RNA with A26U, C28G, U29A, C30G
DNA 1: CAATCTGAATTCCGGTCTCCC
DNA 2: TGGTGGCTACGACGGGATT
B7: GUUGUUU (DNA:RNA)
RNA: B1 RNA with A26U, C28G, C30U, A31U
DNA 1: CAATCTGAATTCCGGTCTCCC
DNA 2: TGGTGGCTACGACGGGATT
B8: UUGCCGG (DNA:RNA)
RNA: B1 RNA with G25U, A26U, U27G, U29C, C30G, A31G
DNA 1: CAATCTGAATTCCGGTCTCCC
DNA 2: TGGTGGCTACGACGGGATT
B9: UGGUAAG (DNA:RNA)
RNA: GGGAGACCGGAAUUCAGAUUGUCCUGGUAAGUUAAAUCCCGUCGUAGCCACCA
DNA 1: CAATCTGAATTCCGGTCTCCC
DNA 2: TGGTGGCTACGACGGGATT
B10: GGGGGCU (DNA:RNA)
RNA: B1 RNA with A26G, U27G, C28G, U29G, A31U
DNA 1: CAATCTGAATTCCGGTCTCCC
DNA 2: TGGTGGCTACGACGGGATT
B11: UCAGUGA (DNA:RNA)
RNA: B1 RNA with G25U, A26C, U27A, C28G, C30G
DNA 1: CAATCTGAATTCCGGTCTCCC
DNA 2: TGGTGGCTACGACGGGATT
B12: CACACAA (DNA:RNA)
RNA: B1 RNA with G25C, U27C, C28A, U29C, C30A
DNA 1: CAATCTGAATTCCGGTCTCCC
DNA 2: TGGTGGCTACGACGGGATT
B13: UUGAAUG (DNA:RNA)
RNA: B9 RNA with G26U, U28A, A30U
DNA 1: CAATCTGAATTCCGGTCTCCC
DNA 2: TGGTGGCTACGACGGGATT
B14: AUAUACU (DNA:RNA)
RNA: B9 RNA with U25A, G26U, G27A, A30C, G31U
DNA 1: CAATCTGAATTCCGGTCTCCC
DNA 2: TGGTGGCTACGACGGGATT
B15: CCCCGUC (DNA:RNA)
RNA: B1 RNA with G25C, A26C, U27C, U29G, C30U, A31C
DNA 1: CAATCTGAATTCCGGTCTCCC
DNA 2: TGGTGGCTACGACGGGATT
B16: CUUACUU (DNA:RNA)
RNA: B1 RNA with G25C, A26U, C28A, U29C, C30U, A31U
DNA 1: CAATCTGAATTCCGGTCTCCC
DNA 2: TGGTGGCTACGACGGGATT
B17: ACGGAAU (DNA:RNA)
RNA: B9 RNA with U25A, G26C, U28G, G31U
DNA 1: CAATCTGAATTCCGGTCTCCC
DNA 2: TGGTGGCTACGACGGGATT
B18: CGAGUAG (DNA:RNA)
RNA: B9 RNA with U25C, G27A, U28G, A29U
DNA 1: CAATCTGAATTCCGGTCTCCC
DNA 2: TGGTGGCTACGACGGGATT
B19: GAUACGA (DNA:RNA)
RNA: B1 RNA with C28A, U29C, C30G
DNA 1: CAATCTGAATTCCGGTCTCCC
DNA 2: TGGTGGCTACGACGGGATT
B20: GGACAGU (DNA:RNA)
RNA: B1 RNA with A26G, U27A, U29A, C30G, A31U
DNA 1: CAATCTGAATTCCGGTCTCCC
DNA 2: TGGTGGCTACGACGGGATT
B21: CUACGCA (DNA:RNA)
RNA: B1 RNA with G25C, A26U, U27A, U29G
DNA 1: CAATCTGAATTCCGGTCTCCC
DNA 2: TGGTGGCTACGACGGGATT
B22: CGUCUUC (DNA:RNA)
RNA: B1 RNA with G25C, A26G, C30U, A31C
DNA 1: CAATCTGAATTCCGGTCTCCC
DNA 2: TGGTGGCTACGACGGGATT
B23: AUAGACU (DNA:RNA)
RNA: B1 RNA with G25A, A26U, U27A, C28G, U29A, A31U
DNA 1: CAATCTGAATTCCGGTCTCCC
DNA 2: TGGTGGCTACGACGGGATT
B24: AUUCACA (DNA:RNA)
RNA: B1 RNA with G25A, A26U, U29A
DNA 1: CAATCTGAATTCCGGTCTCCC
DNA 2: TGGTGGCTACGACGGGATT
B25: UCAUUUC (DNA:RNA)
RNA: B9 RNA with G26C, G27A, A29U, A30U, G31C
DNA 1: CAATCTGAATTCCGGTCTCCC
DNA 2: TGGTGGCTACGACGGGATT
B26: UAAACUU (DNA:RNA)
RNA: B1 RNA with G25U, U27A, C28A, U29C, C30U, A31U
DNA 1: CAATCTGAATTCCGGTCTCCC
DNA 2: TGGTGGCTACGACGGGATT
B27: GUUCGGG (DNA:RNA)
RNA: B1 RNA with A26U, U29G, C30G, A31G
DNA 1: CAATCTGAATTCCGGTCTCCC
DNA 2: TGGTGGCTACGACGGGATT
B28: GGUGAAC (DNA:RNA)
RNA: B9 RNA with U25G, G27U, U28G, G31C
DNA 1: CAATCTGAATTCCGGTCTCCC
DNA 2: TGGTGGCTACGACGGGATT
B29: ACUUAGG (DNA:RNA)
RNA: B9 RNA with U25A, G26C, G27U, A30G
DNA 1: CAATCTGAATTCCGGTCTCCC
DNA 2: TGGTGGCTACGACGGGATT
B30: AUCCUUC (DNA:RNA)
RNA: B1 RNA with G25A, A26U, U27C, C30U, A31C
DNA 1: CAATCTGAATTCCGGTCTCCC
DNA 2: TGGTGGCTACGACGGGATT
B31: ACGGAUU (DNA:RNA)
RNA: B9 RNA with U25A, G26C, U28G, A30U, G31U
DNA 1: CAATCTGAATTCCGGTCTCCC
DNA 2: TGGTGGCTACGACGGGATT

Substitutions are numbered along the chain they refer to; changes in the protein carry UniProt numbers. The list shows a part of the results.

The assay concerns the target T1, RBFOX1 RRM. Briefly: EMSA; HiTS-Eq, 1 nM pool, 10 min; buffer printed only for the single-RNA assays: 10 mM Tris pH 7.5, 150 mM NaCl, 3.4 mM EDTA, 0.001% NP-40, 30 C. The following applies: tags: His6 N-terminal (pET28a); label: 5' 32P. The essentials:
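Purified wild-type or mutant RbFox RRM at increasing concentrations was equilibrated with 1 nM of 5′-radiolabelled RNA carrying 7 randomized nucleotides for 10 min in 50 µL. Unbound RNA was separated by 8% native PAGE and sequenced. Relative association constants came from read-count changes of each RNA species compared with the control reaction, normalised to the cognate motif.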
B1: the binding signal is 0.00437 KA relative to UGCAUGU.
To B2 belongs 0.00335 KA relative to UGCAUGU.
For B3 the value was 0.00859 KA relative to UGCAUGU; for B4, 0.00598 KA relative to UGCAUGU; for B5, 0.00798 KA relative to UGCAUGU.
Turning to B6, the binding signal was 0.0168 KA relative to UGCAUGU.
With B7, the binding signal was 0.0249 KA relative to UGCAUGU.
For B8 the value was 0.0154 KA relative to UGCAUGU.
To B9 belongs 0.0152 KA relative to UGCAUGU; to B10, 0.0377 KA relative to UGCAUGU; to B11, 0.00654 KA relative to UGCAUGU.
Take B12: the binding signal was 0.00157 KA relative to UGCAUGU.
For B13 the value was 0.037 KA relative to UGCAUGU.
To B14 belongs 0.00138 KA relative to UGCAUGU; to B15, 0.000367 KA relative to UGCAUGU; to B16, 0.00379 KA relative to UGCAUGU.
For B17 the value was 0.0072 KA relative to UGCAUGU; for B18, 0.0107 KA relative to UGCAUGU; for B19, 0.0158 KA relative to UGCAUGU.
On to B20, for which the binding signal was 0.027 KA relative to UGCAUGU.
For the molecule B21, the binding signal is 0.00798 KA relative to UGCAUGU.
B22: the binding signal is 0.0126 KA relative to UGCAUGU.
To B23 belongs 0.00258 KA relative to UGCAUGU; to B24, 0.000591 KA relative to UGCAUGU.
For B25 the value was 0.00804 KA relative to UGCAUGU.
Consider B26, for which the binding signal was 0.0047 KA relative to UGCAUGU.
As for B27, the binding signal was 0.0113 KA relative to UGCAUGU.
For B28 the value was 0.0225 KA relative to UGCAUGU; for B29, 0.00645 KA relative to UGCAUGU; for B30, 0.00513 KA relative to UGCAUGU.
To B31 belongs 0.00809 KA relative to UGCAUGU.
